# Measurements as given in the supplement of paper PMC11383711.
# The list shows a part of the results. Binding of human antibodies (heavy:light variable regions, tested as scFv in one mRNA-display pool) to influenza hemagglutinin, with or without the stem antibody CR9114 bound first. Score = (mean enrichment − median) / interquartile range of that screen; higher = more enriched, 0 = typical non-binder. Active = above the paper's cut-off per screen: stems 28; unblocked H1 Solomon Islands 5, H1 Michigan 3, H3 5, H5 19, H7 2.85, both B 5; blocked 9, 7, H5 10, H7 10, B Phuket 10, B Lee 11.5. Scores are scaled within each screen and are no affinities; replicates correlate at about 0.6 to 0.9, and antibodies rare in the pool are noisier.
# B1: 236-14-IgG-1F03 (protein)
# chain 1: QVQLVESGGGVVQPGRSLRLSCAAFGFTFSSFPMHWVRQAPGKGLEWVAVISYDGSNKYYADSVKGRFTISRDNSKNTLYVQMNSLRAEDTAVYYCSRDQGGDYGDYGGGFDYWGQGTLVTVSS
# chain 2: QSVLTQPPSASGTPGQRVTISCSGSSSNIASNTVNWYQQVPGTAPKLLIYSNDVRPSGVPDRFSGSKSGTSASLAISGLQSEDEADHYCAVWDDSLNAYVFGTGTKVTVL
# B2: W85-3B09 (protein)
# chain 1: EVQLLESGGGLVQPGGSLRLSCAASGFTFSDYAMSWVRQAPGKGLEWVAILSGSSGHTYYPDSVKGRFTISRDNSKNTLYLQLTSLRAEDTAVYYCAKGGGQQPTWDGMDVWGQGTTVTVSS
# chain 2: DIQMTQSPSTLSASVGDKVTITCRASQSINRWLAWYQQKPGKAPKLLIYRASSLESGVPSRFSGSGSGTEFTLTISSLQPDDFATYFCQHYEGYSWTFGQGTKVDIK
# B3: AG11-2C03 (protein)
# chain 1: VQLQESGPGLVKPSETLSLTCRVSGGSIDGDTYYWGWVRQPPGKGPEWIGSMSPNGITYYGPSLKSRVTMSVDSSLKSFSLRMTSVTTTDTAVYYCARDRDIVSRGGFDNWGRGTLVTVSS
# chain 2: DIQMTQSPSSLSASVGDRVTITCRASQSISHFLNWYQHRPGQAPKLLIYLASTLHSGVPSRFSGSGSGTYFTLTISGLQPEDFATYYCQQSYSNDPYTFGQGTKVEIK
# B4: C2-3-D06 (protein)
# chain 1: VQLQESGPGLVKPSETLSLTCTVSADSISSYFWTWIRQPPGKGLEWIGYIYYSGSTNYNPSLKSRVTISLDTSKRLLSLKLSSVTAADTAVYYCARDSTVFPRIFDSWGQGTLVTVSS
# chain 2: IVMTQSPGTLSVSPGERATLSCRASQSVGSSFLAWYQQKLGQAPRLLIYGVSSRATGVPDRFSGSGSGTDFTLTISRLEPEDFAVYYCQQCGSSPWTFGQGTKVEIK
# B5: C3-2-3C01 (protein)
# chain 1: VQLLESGGGLVQPGGSLRLSCAASGFTLSSNAMAWVRQVPGKGLQWVSGIGGIGGSTYYADSVKGRFTMSRDNSRNTLYLQMNSLRVEDTAVYYCAKGVGRIFMVRGFYFDYWGQGALVTVSS
# chain 2: DIQMTQSPSPLSASVGDRVTITCRASQSITSYLNWYQQRPGKAPKLLIYAASNLQTGVPSRFSGSGSGTDFTLTISSLQPEDFATYYCQQSYSTPHTFGPGTKVDIK
# B6: K77-1G05 (protein)
# chain 1: EVQLVESGGGVVQPGRSLRLSCAASGFTFSSYSLDWVRQAPGKGLEWVAVISYDGSDKYFADSVKGRFTISRDNSKNTLYLQMNSLRAEDTAVYYCARDSTGYYSFDYWGQGTLVTVSS
# chain 2: QSALTQPASVSGSPGQSITISCTGTSGDVGNYDLVSWYQHHPGKAPKLMIYEGSERPSGVSNRFSGSKSGNTASLTISGLQAEDEADYYCCSYARGGTGVFGTGTKVTVL
# B7: 014-10-3C04 (protein)
# chain 1: QVQLVESGGGVVRPGRSQSLSCAASGFTITPYTMFWVRQAPGKGLEWVAMILYDGSSTDYAGPVKGRFTISRDNSKNTLNLQMNSLRAADTAVYYCARGYGSGKSHYYFDYWGQGTLVTVSS
# chain 2: EIVLTQSPGTLSLSPGERATLSCRASQSVSSFYLAWYQQKPGQAPRLLLYGTSNRATGIPDRFSGSGSGTDFTLTISRLEPEDFAVYYCQQYDTSLTFGPGTKVDIK
# B8: 039-10-5C05 (protein)
# chain 1: QVQLVESGGGLVQPGRSLRLSCAASGFSLSTYPMHWVRQAPGKGLDWVATMSYDGSHKDYADSVKGRFTISTDTSKNTLYLQMNSLRTDDTAVYYCARPRGGGYNYFRADSFDSWGQGTLVTVSS
# chain 2: DIQMTQSPSSLSASVGDRVTITCRTSQRVSTYLNWYQQKPGKSPKLLIYLASSLQSGVPSRFSGSGSGTDFSLTISSLQPEDFATYYCQQSYSMPLTFGGGTKVEIK
# B9: R95-2G12 (protein)
# chain 1: EVQLVESGGDLVQPGRSLRLSCAASGFSFDEYAMHWVRQPPGKGLEWVSGINWDGHSMAYADSVKGRFTISRDNAKNSLYLQMHSLRPEDTAFYYCAKSSYGLVAPNWFDPWGPGTLVTVSS
# chain 2: DIQMTQSPSSLSASVGDRVTITCRASQSIISYLNWYQQKPGKAPKLLIYDASILQGGVPSRFSGSGSGTDFTLTISGVQPEDFATYYCQQSYSAPVSFGQGTKLDIK
# B10: AG13-3F04 (protein)
# chain 1: VQLVQSGAEMQKPGASVKVSCKASGFTFTGFYLHWVRQAPGQGLEWMGWINLNSGDTDTAQKFQGRVTMTSDTSISTAYMDLSSLKSDDTAVYYCATWYISGWYDGMDVWGQGTTVTVSS
# chain 2: DIVMTQSPLSLPVTPGEAASISCRSSQSLLNTNGYTYLDWFLQKPGQSPQLLIYLGFNRASGVPDRFSGSGSGTYFTLKISRVEAEDVGVYYCMQALQTPRTFGQGTKVEIK
# B11: antibody 3A03 (protein)
# chain 1: VQLVESGGGLVQPGGSLRLSCAASGFSFSSYRMNWVRQAPGKGLQWVSYISQSGGTVYYADSVKGRFTISRDNAKNSLYLQMISLRDEDTAVYFCARDEWADDYGNYYLDYWGQGTLVTVSS
# chain 2: EIVLTQSPATLSLSPGERATLSCRASQSVSSFLAWYQKKPGQAPRLLIYDAFNRATGVPARFSGSGSGTDFTLTISSLEPEDFAVYYCQQRSNWPPLTFGGGTKVEIK
# B12: 008-10-5E02 (protein)
# chain 1: EVQLVESGGGLVRPGGSLRLSCAASEINVRNVWMSWVRQAPGKGPEWVGRIKREKDGGTIDYAAPVKGRFTISRDASKNMLFLLMESLQTEDTAVYYCTTDFLESLLLGSGPPRETGHFDTWGQGTLVTVSS
# chain 2: DIQMTQSPSSLSASVGDRVTITCRASQSISTYLNWYQRKPGKAPKFLIYAASNLQSGVPSRFSGSGSGTDFTLTISNLQPEDFATYYCQQSYSTPSWTFGQGTKVEIK
# Key:
# Experiment in all cases: mRNA display binding score; higher = more enriched on the antigen
# [1] = target: Influenza A H1N1 A/Michigan/45/2015 hemagglutinin ectodomain
# Procedure: (§1)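 A pool of natively paired antibodies, displayed as scFv on mRNA, was selected once on antigen-coated beads and sequenced before and after; two replicates.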
# [2] = target: Influenza A H1N1 A/Solomon Islands/3/2006 hemagglutinin ectodomain
# Procedure: as §1
# [3] = target: Influenza A H3N2 A/Singapore/INFIMH-16-0019/2016 hemagglutinin ectodomain; details: antigen blocked with: nothing
# Procedure: as §1
# [4] = target: Influenza A H5N1 A/Qinghai/1A/2005 hemagglutinin ectodomain
# Procedure: as §1
# [5] = target: Influenza A H7N9 A/Shanghai/2/2013 hemagglutinin ectodomain
# Procedure: as §1
# [6] = target: Influenza B/Lee/1940 hemagglutinin ectodomain
# Procedure: as §1
# [7] = target: Influenza B/Phuket/3073/2013 hemagglutinin ectodomain
# Procedure: as §1
# [8] = antigen blocked with: 2 µM CR9114 IgG
Binder,"mRNA display binding score [1, 8]",mRNA display binding score ([1]; antigen blocked with: nothing),"mRNA display binding score [2, 8]",mRNA display binding score ([2]; antigen blocked with: nothing),mRNA display binding score [3],"mRNA display binding score [4, 8]",mRNA display binding score ([4]; antigen blocked with: nothing),"mRNA display binding score [5, 8]",mRNA display binding score ([5]; antigen blocked with: nothing),"mRNA display binding score [6, 8]",mRNA display binding score ([6]; antigen blocked with: nothing),"mRNA display binding score [7, 8]",mRNA display binding score ([7]; antigen blocked with: nothing)
B1,active: 224,active: 8.46,inactive: 0.272,inactive: 0.121,inactive: 0.322,inactive: 0.0373,inactive: 0.21,inactive: -0.413,inactive: 0.0647,inactive: -0.495,inactive: -0.203,inactive: 0.0379,inactive: -0.0714
B2,inactive: 0.00196,inactive: -0.403,inactive: -0.238,inactive: -0.129,inactive: -0.0394,inactive: -0.228,inactive: -0.263,inactive: -0.326,inactive: -0.187,inactive: -0.353,inactive: -0.301,inactive: -0.294,inactive: -0.283
B3,inactive: -0.0562,inactive: 0.0253,inactive: -0.257,inactive: -0.156,inactive: -0.478,inactive: 3.04,inactive: 0.573,inactive: 2.12,inactive: -0.199,inactive: 4.08,inactive: 2.65,active: 11.1,inactive: 1.91
B4,inactive: 0.537,inactive: 0.622,inactive: 0.215,inactive: 0.181,inactive: 0.126,inactive: 0.355,inactive: 0.508,inactive: -0.052,inactive: 0.495,inactive: -0.244,inactive: 0.878,inactive: -0.111,inactive: 0.642
B5,inactive: -0.556,inactive: -0.075,inactive: -0.362,inactive: -0.552,inactive: -0.317,inactive: -1.02,inactive: -0.17,inactive: 0.824,inactive: 0.178,inactive: -0.389,inactive: -0.357,inactive: -0.357,inactive: -0.172
B6,inactive: -0.384,inactive: -0.65,inactive: -0.522,inactive: -0.45,inactive: -0.563,inactive: -0.522,inactive: -0.452,inactive: -0.659,inactive: -0.593,inactive: -0.131,inactive: -0.329,inactive: -0.263,inactive: -0.427
B7,inactive: -0.62,inactive: -0.8,inactive: -0.405,inactive: -0.637,inactive: -0.54,inactive: -0.619,inactive: -0.385,inactive: -0.51,inactive: -0.81,inactive: 0.111,inactive: -0.308,inactive: -0.695,inactive: -0.437
B8,inactive: -0.0896,inactive: -0.371,inactive: -0.351,inactive: -0.563,inactive: 0.345,inactive: -0.44,inactive: -0.302,inactive: -0.214,inactive: -0.409,inactive: -0.256,inactive: -0.396,inactive: -0.215,inactive: -0.318
B9,inactive: -0.356,inactive: -0.676,inactive: -0.165,inactive: -0.673,inactive: -0.335,inactive: -0.648,inactive: -0.498,inactive: -0.291,inactive: -0.628,inactive: -0.301,inactive: -0.365,inactive: -0.6,inactive: -0.401
B10,inactive: 0.138,inactive: 0.897,inactive: 0.181,inactive: -0.129,inactive: 1.14,inactive: 0.183,inactive: 0.374,inactive: 0.285,inactive: 0.654,inactive: 0.0493,inactive: -0.159,inactive: 6.46,inactive: 2.14
B11,inactive: -0.0135,inactive: 0.0301,inactive: -0.197,inactive: -0.274,inactive: -0.107,inactive: -0.292,inactive: -0.161,inactive: 0.363,inactive: 0.547,inactive: 0.145,inactive: -0.207,inactive: -0.102,inactive: -0.278
B12,active: 18,inactive: 0.518,inactive: 4.45,inactive: 1.47,inactive: 0.468,inactive: 0.629,inactive: 0.00891,inactive: -0.841,inactive: -0.431,inactive: 0.144,inactive: -0.347,inactive: -0.273,inactive: -0.295
